For 1 substance, binding results are on record in publication PMC7994203.

These are yes or no findings as the source states them, for the method shown. In cells and extracts the contact can be indirect. Some binding calls cover weakened binding; strength is not graded here.

Assay in all cases: co-IP; anti-Myc (antibody or Myc-trap) immunoprecipitates of HEK293 lysates with overexpressed Myc-tagged CBL variants, blotted for the partner; IP lysis buffer 50 mM Tris-HCl pH 7.5, 150 mM NaCl, 1 mM EDTA, 1% IGEPAL CA-630, 4 °C; cells without EGF or with 50 ng/ml EGF for 5 min; in some panels cells treated with EGFR inhibitors (AG18, AG1478, gefitinib, erlotinib)
In test [1] the target is Myc-tagged CBL-R420L (UniProt P22681).
Test [2] addresses Myc-tagged CBL-R420Q (UniProt P22681).
In test [3] the target is Myc-tagged CBL-Y371F (UniProt P22681).
The target in test [4] is Myc-tagged CBL-Y371H (UniProt P22681).
The target of test [5] is Myc-tagged CBL-Y371D (UniProt P22681).
Test [6] concerns the target Myc-tagged CBL-Y371E (UniProt P22681).
Test [7] deals with Myc-tagged CBL-Y371A (UniProt P22681).
For test [8], the target named is Myc-tagged CBL-70Z (UniProt P22681).
For test [9], the target named is Myc-tagged CBL-Y371S (UniProt P22681).
Test [10] concerns the target Myc-tagged CBL-Y371S/Y3F (UniProt P22681).
For test [11], the target named is Myc-tagged CBL-Y371S/G306E (UniProt P22681).
The target in test [12] is Myc-tagged WT-CBL (UniProt P22681).
Test [13] deals with Myc-tagged CBL-Y371C (UniProt P22681).

“CIN85 (CBL-interacting protein of 85 kDa) (from UniProt Q96B97 1-665)”: the binding entry in test [1], in [2], in test [3], in test [4], in test [5] and in test [6] was “binds” in each case. For the same substance, the binding result was “binds” in [7]; “binds” in test [8]; “binds” in test [9]; “no binding” in test [10]; “no binding” in test [11]; “binds” in [12]. For the same substance, the binding entry in test [13] is on record as “binds”.
